Results from article PMC12820563.
The list shows a part of the results. The list includes weakly bound sequences.

target: T1, MBP-FoxP3dN (UniProt Q99JB6); assay: PD-seq (MBP pull-down with sequencing); settings: 20 mM Tris-HCl pH 7.5, 100 mM NaCl, 1.5 mM MgCl2, 0.4 uM protein, 0.1 uM dsDNA library, 30 min, room temperature, amylose pull-down; high values mean tight binding; double strand, one strand shown
T1 sequence: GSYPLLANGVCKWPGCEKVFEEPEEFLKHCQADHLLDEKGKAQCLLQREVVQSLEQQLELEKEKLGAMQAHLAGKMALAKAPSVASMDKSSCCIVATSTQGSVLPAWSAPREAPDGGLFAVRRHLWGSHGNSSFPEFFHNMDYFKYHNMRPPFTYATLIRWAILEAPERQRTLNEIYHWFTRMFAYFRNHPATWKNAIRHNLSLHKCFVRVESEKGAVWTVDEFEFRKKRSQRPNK

Sequence	binding signal (RPM ratio (pull-down/input))
GATGATTGTTCTCCCAGCTGATGAATTCCAATCCTCGAGTAAACAAATTTTCCTAATCTTTCTGTTCAAGCGCCATCTAC	0.331
GATGATTGTTCTCCCAGCTGATGAATTAAACTGATCGAGTAAACAAATTTTCCTAATCTTTCTGTTCAAGCGCCATCTAC	0.309
GATGATTGTTCTCCCAGCTGATGAATTTATCGCGTCGAGTAAACAAATTTTCCTAATCTTTCTGTTCAAGCGCCATCTAC	1.07
GATGATTGTTCTCCCAGCTGATGAATTAAGAGAATCGAGTAAACAAATTTTCCTAATCTTTCTGTTCAAGCGCCATCTAC	0.178
GATGATTGTTCTCCCAGCTGATGAATTTGTCCCGTCGAGTAAACAAATTTTCCTAATCTTTCTGTTCAAGCGCCATCTAC	2.84
GATGATTGTTCTCCCAGCTGATGAATTACGCGACTCGAGTAAACAAATTTTCCTAATCTTTCTGTTCAAGCGCCATCTAC	1.66
GATGATTGTTCTCCCAGCTGATGAATTGTTCCCGTCGAGTAAACAAATTTTCCTAATCTTTCTGTTCAAGCGCCATCTAC	0.277
GATGATTGTTCTCCCAGCTGATGAATTCCTCCGGTCGAGTAAACAAATTTTCCTAATCTTTCTGTTCAAGCGCCATCTAC	0.176
GATGATTGTTCTCCCAGCTGATGAATTTGATACTTCGAGTAAACAAATTTTCCTAATCTTTCTGTTCAAGCGCCATCTAC	0.986
GATGATTGTTCTCCCAGCTGATGAATTATGGAAGTCGAGTAAACAAATTTTCCTAATCTTTCTGTTCAAGCGCCATCTAC	0.235
GATGATTGTTCTCCCAGCTGATGAATTCATCTGCTCGAGTAAACAAATTTTCCTAATCTTTCTGTTCAAGCGCCATCTAC	0.337
GATGATTGTTCTCCCAGCTGATGAATTTCGCTGCTCGAGTAAACAAATTTTCCTAATCTTTCTGTTCAAGCGCCATCTAC	0.63
GATGATTGTTCTCCCAGCTGATGAATTTTAGCGGTCGAGTAAACAAATTTTCCTAATCTTTCTGTTCAAGCGCCATCTAC	0.285
GATGATTGTTCTCCCAGCTGATGAATTTTGGAACTCGAGTAAACAAATTTTCCTAATCTTTCTGTTCAAGCGCCATCTAC	0.245
GATGATTGTTCTCCCAGCTGATGAATTCGAGGATTCGAGTAAACAAATTTTCCTAATCTTTCTGTTCAAGCGCCATCTAC	0.338
GATGATTGTTCTCCCAGCTGATGAATTGTATTGATCGAGTAAACAAATTTTCCTAATCTTTCTGTTCAAGCGCCATCTAC	5.01
GATGATTGTTCTCCCAGCTGATGAATTTATCGGATCGAGTAAACAAATTTTCCTAATCTTTCTGTTCAAGCGCCATCTAC	0.349
GATGATTGTTCTCCCAGCTGATGAATTGCGCAGATCGAGTAAACAAATTTTCCTAATCTTTCTGTTCAAGCGCCATCTAC	0.774
GATGATTGTTCTCCCAGCTGATGAATTAACTGTATCGAGTAAACAAATTTTCCTAATCTTTCTGTTCAAGCGCCATCTAC	0.594
GATGATTGTTCTCCCAGCTGATGAATTAAGTGCTTCGAGTAAACAAATTTTCCTAATCTTTCTGTTCAAGCGCCATCTAC	0.6
GATGATTGTTCTCCCAGCTGATGAATTAGCTTTATCGAGTAAACAAATTTTCCTAATCTTTCTGTTCAAGCGCCATCTAC	1.44

Sequence	binding signal (RPM ratio (pull-down/input))
GATGATTGTTCTCCCAGCTGATGAATTATGCAGTTCGAGTAAACAAATTTTCCTAATCTTTCTGTTCAAGCGCCATCTAC	2.29
GATGATTGTTCTCCCAGCTGATGAATTGAGAGCCTCGAGTAAACAAATTTTCCTAATCTTTCTGTTCAAGCGCCATCTAC	0.444
GATGATTGTTCTCCCAGCTGATGAATTACACTGATCGAGTAAACAAATTTTCCTAATCTTTCTGTTCAAGCGCCATCTAC	0.457
GATGATTGTTCTCCCAGCTGATGAATTTTCCCATTCGAGTAAACAAATTTTCCTAATCTTTCTGTTCAAGCGCCATCTAC	0.252
GATGATTGTTCTCCCAGCTGATGAATTAGTGATGTCGAGTAAACAAATTTTCCTAATCTTTCTGTTCAAGCGCCATCTAC	2.37
GATGATTGTTCTCCCAGCTGATGAATTCACTTCTTCGAGTAAACAAATTTTCCTAATCTTTCTGTTCAAGCGCCATCTAC	0.371
GATGATTGTTCTCCCAGCTGATGAATTTCACTCATCGAGTAAACAAATTTTCCTAATCTTTCTGTTCAAGCGCCATCTAC	0.652
GATGATTGTTCTCCCAGCTGATGAATTAATATCCTCGAGTAAACAAATTTTCCTAATCTTTCTGTTCAAGCGCCATCTAC	0.643
GATGATTGTTCTCCCAGCTGATGAATTCTGGTGATCGAGTAAACAAATTTTCCTAATCTTTCTGTTCAAGCGCCATCTAC	0.544
GATGATTGTTCTCCCAGCTGATGAATTACATTTATCGAGTAAACAAATTTTCCTAATCTTTCTGTTCAAGCGCCATCTAC	1.35
GATGATTGTTCTCCCAGCTGATGAATTGCGCCTATCGAGTAAACAAATTTTCCTAATCTTTCTGTTCAAGCGCCATCTAC	3.68
GATGATTGTTCTCCCAGCTGATGAATTTAAAATCTCGAGTAAACAAATTTTCCTAATCTTTCTGTTCAAGCGCCATCTAC	0.196
GATGATTGTTCTCCCAGCTGATGAATTTCAGGAATCGAGTAAACAAATTTTCCTAATCTTTCTGTTCAAGCGCCATCTAC	0.179
GATGATTGTTCTCCCAGCTGATGAATTGGTCTCGTCGAGTAAACAAATTTTCCTAATCTTTCTGTTCAAGCGCCATCTAC	0.336
GATGATTGTTCTCCCAGCTGATGAATTTCGGATATCGAGTAAACAAATTTTCCTAATCTTTCTGTTCAAGCGCCATCTAC	0.42
GATGATTGTTCTCCCAGCTGATGAATTATCCGTGTCGAGTAAACAAATTTTCCTAATCTTTCTGTTCAAGCGCCATCTAC	0.352
GATGATTGTTCTCCCAGCTGATGAATTCTCGCCTTCGAGTAAACAAATTTTCCTAATCTTTCTGTTCAAGCGCCATCTAC	2.22
GATGATTGTTCTCCCAGCTGATGAATTGCCTCTGTCGAGTAAACAAATTTTCCTAATCTTTCTGTTCAAGCGCCATCTAC	0.862
GATGATTGTTCTCCCAGCTGATGAATTCGTGCGATCGAGTAAACAAATTTTCCTAATCTTTCTGTTCAAGCGCCATCTAC	0.628
GATGATTGTTCTCCCAGCTGATGAATTCGGAGGTTCGAGTAAACAAATTTTCCTAATCTTTCTGTTCAAGCGCCATCTAC	0.33
GATGATTGTTCTCCCAGCTGATGAATTGCGTCGCTCGAGTAAACAAATTTTCCTAATCTTTCTGTTCAAGCGCCATCTAC	0.993

Sequence	binding signal (RPM ratio (pull-down/input))
GATGATTGTTCTCCCAGCTGATGAATTTATGAGCTCGAGTAAACAAATTTTCCTAATCTTTCTGTTCAAGCGCCATCTAC	1.58
GATGATTGTTCTCCCAGCTGATGAATTCGTGCTTTCGAGTAAACAAATTTTCCTAATCTTTCTGTTCAAGCGCCATCTAC	0.96
GATGATTGTTCTCCCAGCTGATGAATTGCCGTACTCGAGTAAACAAATTTTCCTAATCTTTCTGTTCAAGCGCCATCTAC	0.656
GATGATTGTTCTCCCAGCTGATGAATTAAGAGTTTCGAGTAAACAAATTTTCCTAATCTTTCTGTTCAAGCGCCATCTAC	1.24
GATGATTGTTCTCCCAGCTGATGAATTACCAACCTCGAGTAAACAAATTTTCCTAATCTTTCTGTTCAAGCGCCATCTAC	0.382
GATGATTGTTCTCCCAGCTGATGAATTCTCGTGGTCGAGTAAACAAATTTTCCTAATCTTTCTGTTCAAGCGCCATCTAC	0.27
GATGATTGTTCTCCCAGCTGATGAATTGCAGCCGTCGAGTAAACAAATTTTCCTAATCTTTCTGTTCAAGCGCCATCTAC	0.786
GATGATTGTTCTCCCAGCTGATGAATTCTAAACTTCGAGTAAACAAATTTTCCTAATCTTTCTGTTCAAGCGCCATCTAC	0.381
GATGATTGTTCTCCCAGCTGATGAATTTGAAGGCTCGAGTAAACAAATTTTCCTAATCTTTCTGTTCAAGCGCCATCTAC	0.363
GATGATTGTTCTCCCAGCTGATGAATTGAATAATTCGAGTAAACAAATTTTCCTAATCTTTCTGTTCAAGCGCCATCTAC	0.288
GATGATTGTTCTCCCAGCTGATGAATTGCAGTTGTCGAGTAAACAAATTTTCCTAATCTTTCTGTTCAAGCGCCATCTAC	1.57
GATGATTGTTCTCCCAGCTGATGAATTACCGCTCTCGAGTAAACAAATTTTCCTAATCTTTCTGTTCAAGCGCCATCTAC	0.454
GATGATTGTTCTCCCAGCTGATGAATTAGGACGCTCGAGTAAACAAATTTTCCTAATCTTTCTGTTCAAGCGCCATCTAC	0.484
GATGATTGTTCTCCCAGCTGATGAATTTGTAGTTTCGAGTAAACAAATTTTCCTAATCTTTCTGTTCAAGCGCCATCTAC	5.3
GATGATTGTTCTCCCAGCTGATGAATTAGTAACATCGAGTAAACAAATTTTCCTAATCTTTCTGTTCAAGCGCCATCTAC	1.11
GATGATTGTTCTCCCAGCTGATGAATTACACAGATCGAGTAAACAAATTTTCCTAATCTTTCTGTTCAAGCGCCATCTAC	0.357
GATGATTGTTCTCCCAGCTGATGAATTGATTTCATCGAGTAAACAAATTTTCCTAATCTTTCTGTTCAAGCGCCATCTAC	0.584
GATGATTGTTCTCCCAGCTGATGAATTCCTCATGTCGAGTAAACAAATTTTCCTAATCTTTCTGTTCAAGCGCCATCTAC	0.325
GATGATTGTTCTCCCAGCTGATGAATTTACGTTTTCGAGTAAACAAATTTTCCTAATCTTTCTGTTCAAGCGCCATCTAC	0.716
GATGATTGTTCTCCCAGCTGATGAATTCACAAAATCGAGTAAACAAATTTTCCTAATCTTTCTGTTCAAGCGCCATCTAC	0.214
GATGATTGTTCTCCCAGCTGATGAATTGAAGGCGTCGAGTAAACAAATTTTCCTAATCTTTCTGTTCAAGCGCCATCTAC	0.614
